B1: LINE1-full (parent)
chain: UACGUAGGUGGUUUUCCCCUGAUAGUGCUAAGGGGGCCUGGAAGUUUGGACUGGGCAGAGCUCAACACAGCGUGGCAAAGUGGCUGUGGCUAGACUGCCUCUCUGGAUUCCUCGUCACUCAGCAGGGCAUCUCUGAGAGAAAUGCC

Read counts are not given, so values of variants with three or more changes are uncertain.

The text below walks through data of the RNAGym collection of RNA variant scans (doi:10.7554/elife.90254).

In this data set the parent is B1. Description: self-cleavage, relative activity (ratio to wild type); higher = more cleavage; in vitro, sequencing; the parent is a self-cleaving ribozyme.
As for U62C U73C C90U U112A U115C, the self-cleavage turned out to be 0.04.

Take G10A U47C A64G A124G: the self-cleavage turned out to be 0.54.

Take U12C A42G U112C: the self-cleavage was 1.31.

As to U9C A24G A50U A78G A142G, the self-cleavage turned out to be 0.97.

As for C18A A57U U100C U119C A142G, the self-cleavage is 0.45.

For the variant U13A U45C U143C, the self-cleavage came to 0.43.

U29C C61U A67U: the self-cleavage was found to be 0.

Consider G36A U47C A92U, for which the self-cleavage was determined as 0.65.

For the variant G35U U87C A138G, the self-cleavage was found to be 0.12.

Consider A22G G49U U130G, for which the self-cleavage came to 0.95.

For G44U G53C A64C A65U, the self-cleavage was 0.11.

As for A31C U62C U91C U108C G114A U130C, the self-cleavage is 0.

With U13C U39A U45C U87C U134A A136G, the self-cleavage amounted to 0.

As to U9G U52C U109C A140G, the self-cleavage amounted to 0.68.

With A2G G36A U81A G126U A138G, the self-cleavage was found to be 1.76.

On to U20A A43G U85C, for which the self-cleavage was 0.25.

Take A22G U73A U96A U112C A124G U134A: the self-cleavage came out at 0.24.

For the variant U13A U52A A78U A141G C146U, the self-cleavage came to 1.7.

As for A94C U108C U134C A136U, the self-cleavage was 0.32.

Consider U47C A107G U134A, for which the self-cleavage was found to be 2.15.

In the case of U45C G105A U130C A142G, the self-cleavage worked out at 1.74.

U45C U73G U109C: the self-cleavage stood at 0.

For the variant U12C A77G U112C U134C, the self-cleavage is 1.31.

Take U39C C95A U109C: the self-cleavage is 0.06.

U12C U62C A69G A121U U134C: the self-cleavage was determined as 0.

As for U1C G4A U47A, the self-cleavage came to 0.67.

As for U96C U132C C145U, the self-cleavage is 0.13.

In the case of U14C U39A U73A, the self-cleavage amounted to 2.12.

On to U87A A107G A138G, for which the self-cleavage was found to be 0.13.

On to A43G A69G U132C U143C, for which the self-cleavage stood at 0.25.

U12G A50G U91C: the self-cleavage came to 0.38.

With C84U U87A U143C, the self-cleavage turned out to be 0.27.

For the variant G7C A79G U102C, the self-cleavage was 0.88.

U130G U134C A142G: the self-cleavage is 0.14.

G70U U100C U102C C120U U143C: the self-cleavage stood at 0.16.

Turning to U13C U26C A65G, the self-cleavage was 0.

Regarding U29C C111U U119C, the self-cleavage amounted to 1.34.

For the variant A94G U132C A142C, the self-cleavage worked out at 0.47.

U20C U100C G127A: the self-cleavage is 1.96.

In the case of U15C U45C U96A, the self-cleavage came out at 0.11.

In the case of U13C A22G U62A G74A, the self-cleavage is 0.08.

U14C U96C A136G U143C: the self-cleavage was determined as 0.2.

For the variant U13C A69G U91C, the self-cleavage was determined as 0.

As to A22U U23C U96C A107G, the self-cleavage came to 0.15.

Take G82A A121U U134C: the self-cleavage amounted to 2.05.

A107G C131U U143C: the self-cleavage was found to be 1.59.

In the case of G8A C17A U45C, the self-cleavage worked out at 0.35.

In the case of U5A C66U U73A, the self-cleavage came out at 0.05.

As to U47C A67G A79G A117U, the self-cleavage amounted to 0.

Regarding U15C A79G A140U, the self-cleavage was determined as 2.7.

In the case of U62C U96A A136G, the self-cleavage was found to be 0.02.

As for U14C U23C G75C, the self-cleavage was found to be 1.33.

Consider U81A U91C U115C U143C, for which the self-cleavage was determined as 1.31.

Regarding C3U G35A U96A, the self-cleavage was 0.14.

For U9G U20C U26C C113U G125U, the self-cleavage worked out at 1.28.

With U23C A31U A121C, the self-cleavage came to 1.62.

Consider U12G A24G U45C A79G G127A, for which the self-cleavage amounted to 0.

On to U29C A65G U100A, for which the self-cleavage was found to be 0.08.

For U12G U29C A92G C146U, the self-cleavage was found to be 0.

Regarding U15C U20C U85C G125U, the self-cleavage came to 0.46.

Consider A50G U81A C99U A138G A142G, for which the self-cleavage is 0.43.

As for U5C C19A U20A A22G U130C, the self-cleavage amounted to 0.22.

Regarding U26G G35A U39A A124G, the self-cleavage was determined as 1.47.

As for U39A A42G A79G, the self-cleavage came to 0.5.

Regarding A31U G33A A69G U73G A79G A129U, the self-cleavage came to 0.67.

Take U45A U85C A94U U112A U134C: the self-cleavage was 0.

As for A57U A67G U109C, the self-cleavage is 0.07.

Turning to U20A U85C U115C G137A, the self-cleavage amounted to 0.27.

For A77G A136G U143C, the self-cleavage came to 2.86.

Turning to U1C U13C G89C U132C A142G, the self-cleavage is 0.13.

In the case of G25U A43U A69G U85G A124U, the self-cleavage is 0.13.

For U29C U102A A124G U134C, the self-cleavage is 0.

For the variant U5C U13A U45C A78G, the self-cleavage stood at 0.88.

As for A30G U39A A43G A141G U143C, the self-cleavage worked out at 0.89.

As to U1C U12G A64U, the self-cleavage was found to be 0.48.

For A22G U39A A79U U143C, the self-cleavage was determined as 1.1.

For the variant G32U A42G G80A A107G U143A, the self-cleavage came out at 1.07.

With C110A C131U A136U, the self-cleavage is 1.56.

As for U5C U13A A43G A79G, the self-cleavage is 0.

As to U26C G72A A136G, the self-cleavage was 1.54.

Consider U14C G54A U96C C99A A124G, for which the self-cleavage was determined as 0.04.

For U39C U47C C76U U104C A129G U130C, the self-cleavage came to 1.67.

On to A2U U9A G72U A78G, for which the self-cleavage amounted to 1.23.

In the case of U12C A22G A24G U26A G93A U115C, the self-cleavage was determined as 0.28.

In the case of C28A A77C A94C A117G, the self-cleavage is 0.

Regarding A77U U102C U104C U108C A136U A142G, the self-cleavage was 2.3.

Take U52A A92U A129C: the self-cleavage came to 0.46.

For U12C U47G A79G G97A A121G, the self-cleavage is 0.17.

Regarding G105U C116U U119C, the self-cleavage came to 1.76.

Turning to U5C U23A U119C A142G, the self-cleavage came to 1.43.

As for U85C U96A U100A, the self-cleavage amounted to 0.12.

Regarding U15C U26C U100C, the self-cleavage stood at 2.19.

Turning to U13A U26A A121G, the self-cleavage worked out at 1.01.

On to U9A G34A A107G, for which the self-cleavage was 1.47.

Take U13C U15G A50G A79G: the self-cleavage was 0.

Regarding U20C U87C A136U, the self-cleavage is 0.4.

U12C A121C A141G: the self-cleavage was 2.52.

In the case of U14C A141G U143A, the self-cleavage was found to be 1.77.

As for U5C U26A U47A U62A A124U, the self-cleavage was 0.07.

As to A24U C131U A141G A142G, the self-cleavage was found to be 1.26.

As for G55A G86A A129U A138G, the self-cleavage stood at 0.04.

In the case of A42G A64G U132C U143A, the self-cleavage came out at 0.29.

In the case of A24U U104C A138G, the self-cleavage was determined as 1.91.

With U20A A79G A141G, the self-cleavage was 1.67.

U47A U62C U112C: the self-cleavage is 0.16.

In the case of G40A U85C U104C U134G, the self-cleavage stood at 0.

In the case of U12A C68U A107G A121U, the self-cleavage was determined as 0.26.

Take U73A A79G U115A: the self-cleavage amounted to 0.97.

As for A67U A77U A129G, the self-cleavage was 0.03.

With A2G A79U U115C, the self-cleavage amounted to 1.2.

Turning to U1C A42G A67U A78G U81C, the self-cleavage turned out to be 0.

In the case of A42G A94G U102C, the self-cleavage is 0.77.

Regarding U12C U47C A138G, the self-cleavage came to 0.59.

For U15C A57U U130C, the self-cleavage was found to be 0.34.

As to A42G A64U U115C U132C, the self-cleavage came out at 0.68.

Turning to A78U C84U A142G, the self-cleavage came to 0.05.

In the case of G27U G40U U47A A67G, the self-cleavage amounted to 0.21.

Take A43G A67U U109C: the self-cleavage is 0.

As for G10A U15C A42G, the self-cleavage amounted to 2.

Regarding U29A A64U A142G, the self-cleavage was found to be 0.23.

Take U9C U26C A67U C98U U134C: the self-cleavage came to 0.09.

Consider U14C U109A A140G, for which the self-cleavage worked out at 1.08.

Consider U9A U39C A64U, for which the self-cleavage worked out at 0.44.

For U14C G36U C37G U39C, the self-cleavage was found to be 1.78.

Take G40A U52G A140G: the self-cleavage worked out at 1.1.

For G58U A124U U130C, the self-cleavage came to 0.02.

As for U5C U39C U132C, the self-cleavage amounted to 1.31.

U73A U91A U119C: the self-cleavage was 0.92.

In the case of A31U G40U U62C U104G, the self-cleavage is 0.06.

For A77G A92G A140U, the self-cleavage came to 0.19.

A22G U112C A138U: the self-cleavage turned out to be 1.21.

Turning to C3U A57U U91C C113U, the self-cleavage came to 0.17.

For U15C A77G U112C, the self-cleavage came out at 2.68.

In the case of U1C A22U U73A U91C U115C, the self-cleavage turned out to be 0.19.

In the case of G21A U73G C131U, the self-cleavage is 0.57.

As to A30G A43G G72A U112A, the self-cleavage amounted to 1.23.

As to U14C C18U U81C A138G, the self-cleavage is 1.19.

U12A U45A U73A U91C A141G A142G: the self-cleavage was found to be 0.

Turning to U12A A24G G33A, the self-cleavage came out at 1.03.

Turning to G55A G127C A141G, the self-cleavage worked out at 0.44.

In the case of A59G A69U A141G, the self-cleavage is 0.

U14C A42G A69G: the self-cleavage was 1.64.

Regarding U5C U9C U12C A124G U134C, the self-cleavage was determined as 0.

On to U20C C84U U100C, for which the self-cleavage is 0.27.

As to U39A G72A A136U, the self-cleavage was determined as 2.37.

Turning to A59U U62C U85A G144A, the self-cleavage was 0.09.

Take A64G U115A A138U: the self-cleavage is 0.1.

Turning to A2G U100C U104C, the self-cleavage was 1.31.

For A77U U96A G122A A140G, the self-cleavage turned out to be 0.

Take U20C A92G U134C: the self-cleavage turned out to be 0.

With U13C A22G G27C A140C, the self-cleavage is 0.23.

Regarding A2G U87A A140G, the self-cleavage came out at 0.24.

In the case of A6U G75A U91C U96C U112C A141G, the self-cleavage turned out to be 0.11.

As to U26A A43G A50G A124G, the self-cleavage stood at 0.

As to A79G U85C U112A, the self-cleavage was 0.14.

Take G53A A59G U96C U119C: the self-cleavage was determined as 0.09.

As to A31G U73A C95A A140U, the self-cleavage stood at 0.03.

As for U45C A69C U85C, the self-cleavage stood at 0.57.

Turning to A79G A140G G144A, the self-cleavage came out at 1.3.

With U9C C17U U96C A141G, the self-cleavage is 0.31.

Regarding A65G C66G A107G, the self-cleavage stood at 0.05.

Regarding U9C U45C A142G, the self-cleavage is 2.42.

As for U15C A57G A67G, the self-cleavage stood at 1.53.

Consider A107G A121C U134A, for which the self-cleavage stood at 2.3.

For A31G U47A C84U U87A, the self-cleavage is 0.06.

For the variant A50U A77G A140G, the self-cleavage is 1.07.

U62C A129G A141G: the self-cleavage was determined as 0.06.
